Reference: publication PMC5892938
Some of the results follow. The exact form of the protein is not confirmed.

These sequences were tested against GST-SBP-ILF3 (Homo sapiens) (UniProt Q12906) (assay: targeted RNA Bind-n-Seq). Conditions: RBNS binding buffer: 25 mM Tris pH 7.5, 150 mM KCl, 3 mM MgCl2, 0.1% Tween, 0.5 mg/mL BSA, 1 mM DTT; 27 nM protein, 750 pM RNA pool; temperature not stated; high values mean tight binding; sequences stand for … in GGGUAAAAGCGAGGUGAA…CGGGACAAGUAUUAUGGG.

| Sequence | binding signal (log2 fold change) |
| --- | --- |
| GUGUGGUGUGUUGGCCCCUAACACACUAUA [gtspaired] | -0.288 |
| GUGUGUGGUGUUGGCACCUAACACCGCAUA [gtspaired] | -0.634 |
| UUUUUUUUUUGAGAGGGCGGCCCUCUCCAG [tttttgagapaired] | 1.16 |
| UUUUUUUUUUGAGAGUGCGGCAUUCUCCGG [tttttgagapaired] | 0.549 |
| UUUUUUUUUUGAGACUGCAACAGUUUCCUA [tttttgagapaired] | 0.39 |
| GGUGUUGGUGUUGGCCCCUAACACCGAUAC [gtspaired] | -0.424 |
| UUUUUUUUUUGAGAUGGAAGCCAUCUCCAG [tttttgagapaired] | 0.141 |
| GUGUGGUGUGUUGGCCUCUAACACAUCGCG [gtspaired] | -0.743 |
| UUUUUUUUUUGAGACUGCAACAGUUUUCUA [tttttgagapaired] | 0.0585 |
| UUUUUUUUUUGAGACGGGAGCCGUUUCCGG [tttttgagapaired] | 0.728 |
| GUGGUUGGUGUUGGACUCUAACACCGACUA [gtspaired] | -0.83 |
| GUGUGGUGUGUUGGCACCUAACACACUACA [gtspaired] | -0.806 |
| GGUGUGUGUGUUGGAUUCUAACACAUAUAC [gtspaired] | -0.443 |
| GGUUGUGGUGUUGGAUUCUAACACCGCGAC [gtspaired] | -0.569 |
| UUUUUUUUUUGAGAUGGCGGCUAUCUCCAG [tttttgagapaired] | 0.817 |
| GGUGUGUGUGUUGGAACCUAACACAUACAC [gtspaired] | -0.278 |
| UUUUUUUUUUGAGAACGUACCGUUCUCCGG [tttttgagapaired] | 0.507 |
| UUCUCUUCUCCUCCAGAGGAGGGGGAGGGA [ctspaired] | -0.208 |
| UUUUUUUUUUGAGACCGAUCCGGUCUUCUG [tttttgagapaired] | 0.472 |
| UUUUUUUUUUGAGAGGGACCCCCUCUCCAG [tttttgagapaired] | 0.574 |
| GUGUGUGGUGUUGGCCCCUAACACCGCGCG [gtspaired] | -0.183 |
| GUUGUGUGUGUUGGUGUCUAACACACACAG [gtspaired] | -0.581 |
| UUUUUUUUUUGAGAGGGAGCCCCUCUCCAG [tttttgagapaired] | 0.562 |
| UUUUUUUUUUGAGAUGGGCGCCAUCUCCGG [tttttgagapaired] | 0.623 |
| UUUUUUUUUUGAGAUGGGAUCCAUUUCCAG [tttttgagapaired] | 0.126 |
| UUUUUUUUUUGAGAUGGACACCAUCUCCAG [tttttgagapaired] | 0.349 |

| Sequence | binding signal (log2 fold change) |
| --- | --- |
| UUCUCUUCUCCUCCAUGGGAGGGGGAGGGA [ctspaired] | -0.483 |
| UUUUUUUUUUGAGACCGGCACGGUUUCCAG [tttttgagapaired] | 0.494 |
| GUGUGGUGUGUUGGCUUCUAACACACUAUA [gtspaired] | -0.681 |
| GGUGUGUGUGUUGGCUCCUAACACAUAUAC [gtspaired] | -0.782 |
| GUGGUUGGUGUUGGAGUCUAACACCAGCCG [gtspaired] | -0.581 |
| UUUUUUUUUUGAGAUGGUCUCCAUCUUCUG [tttttgagapaired] | 0.594 |
| UUUUUUUUUUGAGAGGGACCCCCUCUCCUG [tttttgagapaired] | 0.822 |
| GGUUGUGGUGUUGGUGUCUAACACCGCAGC [gtspaired] | -0.364 |
| GUGUGUUGUGUUGGCCCCUAACACAGCACG [gtspaired] | -0.337 |
| UUCUCUUCUCCUCCAAUGGAGGGGGAGGGA [ctspaired] | -0.617 |
| UUUUUUUUUUGAGAGUGAUCCACUCUCCAG [tttttgagapaired] | 0.148 |
| UUUUUUUUUUGAGACUGCGUCAGUCUCCUG [tttttgagapaired] | 0.703 |
| UUUUUUUUUUGAGAGCGACACGUUCUCCAG [tttttgagapaired] | 0.294 |
| UUUUUUUUUUGAGACUGGUGCAGUCUUCUA [tttttgagapaired] | 0.498 |
| GUGGUGUGUGUUGGCAUCUAACACAUACCG [gtspaired] | -0.901 |
| GUGGUGUGUGUUGGUCCCUAACACACGCCA [gtspaired] | -0.161 |
| UUUUUUUUUUGAGACGGAGACCGUUUUCUA [tttttgagapaired] | 0.492 |
| UUUUUUUUUUGAGACUGGGUCAGUCUCCUA [tttttgagapaired] | 0.486 |
| UUUUUUUUUUGAGAGCGUGGCGCUCUCCUA [tttttgagapaired] | 0.343 |
| UUUUUUUUUUGAGAUGGGCCCCAUCUCCUG [tttttgagapaired] | 1.02 |
| UUUUUUUUUUGAGACGGGGGCCGUCUUCUG [tttttgagapaired] | 0.933 |
| UUUUUUUUUUGAGAGGGGGCCCUUCUCCAG [tttttgagapaired] | 0.674 |
| UUUUUUUUUUGAGACGGCCACCGUCUCCAG [tttttgagapaired] | 0.845 |
| UUUUUUUUUUGAGACUGCGUCAGUCUCCGG [tttttgagapaired] | 0.668 |
| UUUUUUUUUUGAGAUGGCAUCCAUCUUCUA [tttttgagapaired] | -0.0735 |
| UUUUUUUUUUGAGACAUGGAUAAUAAAAAA [ttttgagaunpaired] | -0.117 |

| Sequence | binding signal (log2 fold change) |
| --- | --- |
| UUUUUUUUUUGAGAGCGAGACGUUCUCCGG [tttttgagapaired] | 0.161 |
| GUGGUUGGUGUUGGAUCCUAACACCGACCG [gtspaired] | -0.785 |
| UUUUUUUUUUGAGAUGGACACUAUCUCCAG [tttttgagapaired] | 0.415 |
| UUUUUUUUUUGAGACGGAUGCCGUCUUCUG [tttttgagapaired] | 0.726 |
| UUUUUUUUUUGAGACGGAAGCCGUCUCCUA [tttttgagapaired] | 0.301 |
| UUUUUUUUUUGAGACUGACACAGUCUUCUG [tttttgagapaired] | 0.397 |
| UUUUUUUUUUGAGAACGAAACGUUCUCCGG [tttttgagapaired] | -0.0874 |
| UUUUUUUUUUGAGACUGCGACAGUUUCCAG [tttttgagapaired] | 0.529 |
| UUUUUUUUUUGAGACGGUAGCCGUUUCCUG [tttttgagapaired] | 0.613 |
| UUUUUUUUUUGAGACCGAAACGGUUUCCGG [tttttgagapaired] | 0.472 |
| UUUUUUUUUUGAGAUGGGCUCCAUCUCCAG [tttttgagapaired] | 0.383 |
| UUUUUUUUUUGAGACUGUUGCAGUCUUCUA [tttttgagapaired] | 0.366 |
| GUGUGGUGUGUUGGCCUCUAACACAUCGCA [gtspaired] | -0.804 |
| UUUUUUUUUUGAGAGGGGUCCCUUCUCCAG [tttttgagapaired] | 0.796 |
| UUUUUUUUUUGAGAUCGGUACGAUCUUCUA [tttttgagapaired] | 0.595 |
| UUUUUUUUUUGAGACGGAGACCGUCUCCAG [tttttgagapaired] | 0.495 |
| UUUUUUUUUUGAGAGUGAGACACUCUUCUG [tttttgagapaired] | 0.173 |
| UUUUUUUUUUGAGAACGGACCGUUCUCCUA [tttttgagapaired] | 0.443 |
| UUUUUUUUUUGAGAGGGUGGCCCUCUCCAG [tttttgagapaired] | 0.935 |
| UUUUUUUUUUGAGACUGCGACAGUCUCCAG [tttttgagapaired] | 0.559 |
| GGUGUGUGUGUUGGAGUCUAACACAUACGC [gtspaired] | -0.717 |
| UUUUUUUUUUGAGACGGAAUCUGUCUCCUG [tttttgagapaired] | 0.395 |
| UUUUUUUUUUGAGAGGGGGACCCUCUCCGG [tttttgagapaired] | 0.408 |
| UUUUUUUUUUGAGAGCGAUGCGCUCUUCUG [tttttgagapaired] | 0.253 |
| UUUUUUUUUUGAGAAGGGGCCCUUCUCCAG [tttttgagapaired] | 0.217 |
| UUUUUUUUUUGAGACGGGGACCGUCUCCUG [tttttgagapaired] | 0.566 |

| Sequence | binding signal (log2 fold change) |
| --- | --- |
| UUCCUCUCUCCUCCGCGGGAGGGGGGAGGA [ctspaired] | -0.411 |
| UUUUUUUUUUGAGAUGGGACCCAUCUUCUG [tttttgagapaired] | 0.55 |
| UUUUUUUUUUGAGACGGACUCCGUCUUCUG [tttttgagapaired] | 0.639 |
| UUUUUUUUUUGAGAGGGUGCCCCUCUCCGG [tttttgagapaired] | 0.579 |
| GUGGUGUGUGUUGGUGUCUAACACACAUCG [gtspaired] | -0.808 |
| UUUUUUUUUUGAGAGGGAAACCCUUUCCAG [tttttgagapaired] | 0.0642 |
| GUGUGUUGUGUUGGUCUCUAACACAACGCA [gtspaired] | -0.138 |
| GUUGUGUGUGUUGGCGUCUAACACACGCAG [gtspaired] | -0.728 |
| GUGUGUGGUGUUGGACUCUAACACCAUACA [gtspaired] | -0.519 |
| UUUUUUUUUUGAGAGCGGUGCGCUCUUCUG [tttttgagapaired] | 0.211 |
| GUGUGUUGUGUUGGAGCCUAACACAACGCG [gtspaired] | -0.736 |
| GUGGUGUGUGUUGGAGUCUAACACAUACCA [gtspaired] | -0.404 |
| GUGUGGUGUGUUGGCCUCUAACACACCGCA [gtspaired] | -0.426 |
| GUUGUGUGUGUUGGUCCCUAACACACACAG [gtspaired] | -0.563 |
| UUUUUUUUUUGAGAGUGAGACACUCUCCGG [tttttgagapaired] | 0.102 |
| GUGUGUGGUGUUGGUGUCUAACACCGCACG [gtspaired] | -0.584 |
| GUGUGUGGUGUUGGUACCUAACACCGCGCA [gtspaired] | -0.564 |
| GUUGGUGGUGUUGGACUCUAACACCAUCAA [gtspaired] | -0.424 |
| GGUUGUGGUGUUGGUGUCUAACACCGCGAC [gtspaired] | -0.795 |
| UUUUUUUUUUGAGACCGGGUCGGUCUUCUA [tttttgagapaired] | 0.452 |
| GGUGUGUGUGUUGGUUCCUAACACAUACGC [gtspaired] | -0.489 |
| GUGGUGUGUGUUGGCAUCUAACACACAUCA [gtspaired] | -0.685 |
| GGUUGUUGUGUUGGAGUCUAACACAGCAAC [gtspaired] | -0.69 |
| GUGGUUGGUGUUGGCCUCUAACACCGACUA [gtspaired] | -0.554 |
| UUUUUUUUUUGAGACCGCAACGGUCUCCGG [tttttgagapaired] | 0.439 |
